67 sequences from the supplement of paper PMC10126150 can be followed below.

This data set concerns ATP. In words: switch fluorescence ratio, 500 uM ATP over buffer (Cy3 cluster intensity, sum of 5 cycles each) (fold (ratio)); higher = stronger signal-on switching upon ATP binding; sequences stand for … in TCGTCGGCAGCGTCAGATGTGTATAAGAGACAGTTTTTTTTTTTTTTTTTTTTTTTTT…TC. To be noted: aptamer strand: ATP DNA aptamer (quencher-CACCTGGGGGAGTATTGCGGAGGAAGG + anchor), 100 nM annealed; ATP concentration: 500 uM; one replicate. The gist of the method: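 Between each of five buffer/ATP cycles, the flow-cell was stripped with NaOH and re-annealed. Each cycle imaged Cy3-labelled switching-strand clusters, annealed to 100 nM quencher-labelled ATP aptamer on a modified Illumina MiSeq flow-cell, first in selection buffer and then after 15 min with 500 uM ATP at 22 °C. The fluorescence ratio is summed target-cycle over summed buffer-cycle Cy3 intensity per cluster, averaged per switch-domain sequence, with clusters outside 100-1000 RFU excluded.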

Sequences with one replicate were seen in a single cluster, so their values are uncertain.
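Further: ATP exposure 15 min at 22 °C before imaging.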

Turning to AGTGTTATGT, the switch fluorescence ratio was found to be 0.988.
For the sequence ACAACGTCGG, the switch fluorescence ratio was 0.983.
For AAGATGTTCG, the switch fluorescence ratio was 1.02.
With AAGTTGGCCT the figure was 0.968; with GGAGTCAACC, 0.99.
Turning to CCTTATTTAT, the switch fluorescence ratio worked out at 1.03.
Take GATTGTGGCG: the switch fluorescence ratio was 0.921.
With CTGGGGAGT the figure was 1.04; with CACCCGAATA, 1.18; with TCTGACCAGA, 1.01.
In the case of TCGTACACAA, the switch fluorescence ratio is 1.69.
Regarding GCTATACGTC, the switch fluorescence ratio was found to be 1.19.
With GGCCATGCCT the figure was 0.974; with TGGCGTAGCG, 1.01; with GTTACCATGT, 0.987.
With CACGGGCTAT, the switch fluorescence ratio is 1.01.
Consider CGGTTAACGC, for which the switch fluorescence ratio is 1.04.
With GTTTTGCCGA the figure was 0.938; with TGCGACTATC, 1.07; with TTGATAGCAG, 1.01.
AATGCGACCC: the switch fluorescence ratio is 1.04.
Under AATTGTGACT stands 1.03.
Under AAGTGGTTAA stands 0.985; under TACTATGAAT, 1.02; under CTCCAACTGT, 0.924.
With TTAGGTTAAG the figure was 0.968.
As for GTCCCTATTG, the switch fluorescence ratio turned out to be 0.981.
Take CGTATATAA: the switch fluorescence ratio stood at 1.04.
Under AACCGTGTG stands 1.04; under AACCCTTGGC, 1; under ATATCGGACC, 1.06.
As for TTCAATCCTC, the switch fluorescence ratio amounted to 1.21.
As to GGCCCTGTGT, the switch fluorescence ratio is 1.08.
As for ACAAGGTTCG, the switch fluorescence ratio came out at 1.01.
Under TGTGCTGGGG stands 1.02.
With CCGTTACAGG the figure was 1.23; with TTTACCAGAA, 1.05.
Take TGGTCACGTT: the switch fluorescence ratio was 1.03.
Take GAGCTCCGGG: the switch fluorescence ratio worked out at 1.04.
Consider TTCTGATTTT, for which the switch fluorescence ratio was 0.991.
With TACTAAAGG the figure was 1.01.
With GCCACCGACC, the switch fluorescence ratio amounted to 1.5.
In the case of CGCGGGCTGT, the switch fluorescence ratio was 0.994.
Under GAAAGTAGA stands 0.975; under TTCGAAGATG, 1.05.
With GGACTCGTCG the figure was 0.96.
With CAATCTTGAT the figure was 1.
Regarding TTATGGTCGA, the switch fluorescence ratio was 0.961.
Turning to ATGGAAACGC, the switch fluorescence ratio is 0.976.
Under GCTTCGTATG stands 0.994.
For TACGTCCTC, the switch fluorescence ratio was found to be 1.09.
As for GACGATAAA, the switch fluorescence ratio was found to be 1.03.
Under AACCACGTGT stands 1; under GGATATGCAT, 1.02; under CGCTACAGGT, 1.14.
With GGCCCAGGGG, the switch fluorescence ratio came to 1.03.
With CGGAGCCGGT the figure was 0.992.
TTATACCCCA: the switch fluorescence ratio stood at 1.08.
As for CCTTTTTCTG, the switch fluorescence ratio amounted to 1.01.
Turning to AATAGGATTA, the switch fluorescence ratio was 0.986.
Consider TTACTTGGG, for which the switch fluorescence ratio was 0.956.
With ACTAGTCTCA the figure was 1.03; with TACTAGTTCA, 0.99.
As for ATATACCGGC, the switch fluorescence ratio is 0.988.
Under GGTAATAATG stands 1.01.
With GCGTGCGTCT the figure was 0.97; with TTGGCCTCGC, 1.
